Source: the RNAGym collection of RNA variant scans (doi:10.1073/pnas.2313332121)
Variants at the floor of the assay are shown more often than the library holds them.

B1: TPR 5TU (parent)
chain: GGAUCUUCUCGAUCUAACAAAAAAGACAAAUCUGCCACAAAGCUUGAGAGCAUCUUCGGAUGCAGAGGCGGCAGCCUUCGGUGGCGCGAUAGCGCCAACGUUCUCAACUAUGACACGCAAAACGCGUGCUCCGUUGAAUGGAGUUUAUCAUG

Variants of: B1
Test: polymerase ribozyme fitness, log enrichment relative to wild type (log ratio); higher = more active; in vitro selection for triplet polymerase activity
In short: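 For each subunit of a heterodimeric triplet polymerase ribozyme, a mutant library was built by PCR and transcribed, then taken through a single in vitro selection round in triplicate. Selection involved annealing to a biotinylated primer, the partner subunit and triplets, incubation frozen at −7 °C, gel excision of extended constructs, capture on streptavidin beads and RT-PCR. Genotypes were retained after Illumina sequencing of inputs and outputs only with ≥10 input reads and ≥1 read in each output. Fitness is defined as the logarithm of a genotype's enrichment relative to wild-type enrichment, using inverse-variance-weighted averages across replicates, with the logarithm taken to base 2.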

Variant	polymerase ribozyme fitness (log ratio)
A28U G34U G46A A60C U82G C103U A115C A122U U146A	≤ -4.2
A28U A29G A40G C51G C96G C99G G136C	≤ -4.2
A28U C76U G83A G92C	≤ -4.2
A28U A47C C51A G68U G92A A113U A122G	≤ -4.2
A29C A49C C76U G80C C99G C116U A119C	≤ -4.2
A28C U31G G50C A52C G74A G80U G86U A121U	≤ -4.2
A28C U33A C85G	≤ -4.2
A28G C35U G48A G50U C63U G84A C85G G94A U101G U102C U134G U146C	≤ -4.2
A28U G133U	≤ -4.2
A28G A30G G86U C93G G117C A147G	≤ -4.2
A28C G46C C75A A89U C95U U102G	≤ -4.2
A28C C57G G84A C116A C118A G133U	≤ -4.2
A28C G50C C93G C105A U134C	≤ -4.2
A29C C87A A115U A142C	≤ -4.2
A29C G48A A73G G86U U109C C118G U134A U148G	≤ -4.2
A28C G42A U90C G94C A98C	≤ -4.2
A28G G50U C93U C99U C123U G136C G141C	≤ -4.2
A28G G84U	-4.02
A28U G50C C54U C95A A107U G143U	≤ -4.2
A29C C35G C54A A73U G86U U148C	≤ -4.2
A28C C36U U44C G59A U82C C85A A97U C108U C114U C131G U151C	≤ -4.2
A28G C35U A91G	≤ -4.2
A28C G140A	≤ -4.2
A28G G48A G58U G83U C125U G126C	≤ -4.2

Variant	polymerase ribozyme fitness (log ratio)
A29C A41C G81A C129A	≤ -4.2
A28G A47U G58U	≤ -4.2
A28G C36U U45A A89U C108G	≤ -4.2
A28G A41C G42U A66G C96G G133U U144G	-4.13
A28G A29C C85G	≤ -4.2
A28U C54U U56G A66U C87U C93G	≤ -4.2
A28U C54U G92A G117U C123U	≤ -4.2
A29C G48U C54U C69A C85A A110C U134A G141A	≤ -4.2
A28U C96U A115C	≤ -4.2
A28G A47U U55A G74A C75A C76G G84C	≤ -4.2
A28C A49U C51U C72U C75G C87G U90G U135A	≤ -4.2
A29C A52C C54U U82C U90A G136A	≤ -4.2
A28U U53A A73U A120U G128C U130A	≤ -4.2
A28C G84A A91U C105G C108G	≤ -4.2
A29C C32G C87G C95A C114U C123U	≤ -4.2
A28U C54A G92U U127G G141A	≤ -4.2
A29C A41C G58A C75A C79U G83A	≤ -4.2
A28U G50C U53A A66U C69U C79U G84U G94U G143A	≤ -4.2
A29C A52C G83C U90C C95A A97U A98G U139A	≤ -4.2
A28U G42U A64G C76A G92U C93U A97C	≤ -4.2
A28C C93A C149A	≤ -4.2
A28G C72G G84A C129U	≤ -4.2
A28C A107G U144C U148C	≤ -4.2
A28U C103A U111C	≤ -4.2

Variant	polymerase ribozyme fitness (log ratio)
A28U C35U A91U C132U	-3.89
A28C C57U C95A C99A C131U G136A	≤ -4.2
A28C A47C C132U	≤ -4.2
A29C C95G A138G A147C	≤ -4.2
A28G C57A C79G A91U C103A A107C	≤ -4.2
A28U U56A C95U A98U G133A	≤ -4.2
A28G A40C G59C C99A U109C	≤ -4.2
A28C G42U C57U G70U C85U	≤ -4.2
A28U A39C C93U G126C A150G	≤ -4.2
A28C U56C A73G G94A A98G C116A	≤ -4.2
A28G C32U G50A C85A	≤ -4.2
A28C A52C C54G A91G C125U	≤ -4.2
A28U A29G A40G C85G U90G U134G	≤ -4.2
A28C G88A A106G	≤ -4.2
A28U C38U U55A A60G G83A U102A A122C U151G	≤ -4.2
A29C C79G C116G	≤ -4.2
A28C G59U G70A G88U G126U	≤ -4.2
A28U G86U U135C	≤ -4.2
A29C C51U G83C C95U A137G G143C	≤ -4.2
A28G A29C A64G C79A U134G	≤ -4.2
A28G A29U A49U G58C G62U C87G C123G	≤ -4.2
A29C A66C G80A A110U A147C	≤ -4.2
A28U C69U U139C	≤ -4.2
A28U G50A C96G C118G U146C	≤ -4.2

Variant	polymerase ribozyme fitness (log ratio)
A28C A49U U56A G65A G70C A91U G94C G117C U151A	≤ -4.2
A28U C85A C93G C96G	≤ -4.2
A28U U44A C87G A106C	≤ -4.2
A28U A37C U139C U151G	≤ -4.2
A28C U56G C85G A98G A142G	≤ -4.2
A28U A37C A73G C95G A98U U139A	≤ -4.2
A28U A29U G74C C79G A89C C118A A120U A122G C125G	≤ -4.2
A29C A91C C93A G117U U145A	≤ -4.2
A29C G46U G65C A98U G112U A115U G143A	≤ -4.2
A28U C36A C96U U109G	≤ -4.2
A28C U44A U102A C105G U145C	≤ -4.2
A29C A47U C76G C79A A97U C99A C125G U134A U144G	≤ -4.2
A29C C35U A91G G94A C114A U146A	≤ -4.2
A29C C57G A66C C96G C125A C132G	≤ -4.2
A28U U53A C57U A91U C95U	≤ -4.2
A28U A37C C57G C95U G117U C125G U134G G136A	≤ -4.2
A28U U53A G92U U104A	≤ -4.2
A28U C63U U82G C95A	≤ -4.2
A28C G42U G62A A64C G83A G84U G126A	≤ -4.2
A28U C75U G86C U134G A142C A147U	≤ -4.2
A28C G59A U77A G84A U90A C118G U127G U151A	≤ -4.2
A28C A47C G62C C108G A122C	≤ -4.2
A29C C105G	≤ -4.2
A28U C72G G86A G133U	≤ -4.2

Variant	polymerase ribozyme fitness (log ratio)
A28U A49C A52C G83U G94C C149A	≤ -4.2
A28U C43U A52G U55A C79G	≤ -4.2
A28G A37C C95G	≤ -4.2
A28C C76G G86A A147U	≤ -4.2
A28U G58U A60C C69G G94A A106C	≤ -4.2
A28U A60C G81U C85A C108G G117A	≤ -4.2
A28U G67C U77A U90C C95U C105U A142G	≤ -4.2
A28C C32G C36U U145C	≤ -4.2
A29C C36G U78C C93G A97G	≤ -4.2
A29C C32G A41G G48U G140A G141C	≤ -4.2
A28G G50A C75U A91C C93A U109A	≤ -4.2
A29C A47G C69A G83U G84A C114A	≤ -4.2
A29C G59C G94A G112A A120C G140A	≤ -4.2
A28U A49C C96U G136A	≤ -4.2
A29C A52U G92C C103U C116G G124A	≤ -4.2
A29C C51A G65A G71A U78A	≤ -4.2
A28U A40C C75U G83U G133A	≤ -4.2
A28C C36A U53G U56G C87U	≤ -4.2
A28U A41U G50C G84A C99G U127C	≤ -4.2
A28C U90C	≤ -4.2
A29C C38G U55A C75U U82C C105U	≤ -4.2
A29C G58U A91U C99U C131G	≤ -4.2
A29C G50C G83A A98U	≤ -4.2
A28U A97G A98U U101A C131U A138C	≤ -4.2

Variant	polymerase ribozyme fitness (log ratio)
A28C C35G C43U G59C A91G A121C C125A	≤ -4.2
A28U G100U A113C	≤ -4.2
A28C C38U G133U	≤ -4.2
A29C A37C C69A A106C C108A U148A	≤ -4.2
A28U C32U G58A C93G A97G U127G A138C	≤ -4.2
A29C C85A	≤ -4.2
A29C C85U	-3.79
A28U A39U U56A C72U U78G C85U C93U	≤ -4.2
A28G A106G U134G	≤ -4.2
A28G C35A G42U G68C C75A U127G G128A	≤ -4.2
A28C C79G G80C A107U	≤ -4.2
A28U G62U G81C C95U C99U U102C U145G	≤ -4.2
A28U G84U U102G A110G C114G U134A	≤ -4.2
A28U C54G A91G C99G	≤ -4.2
A28C U144G	-4.03
A28U U31G C43A C54A A150G	≤ -4.2
A28U C54U G70C G88C U104A C123U	≤ -4.2
A28G C57G C93A U135A	≤ -4.2
A28C G42A C93U A107U U146G A147U	≤ -4.2
A28G A41U A64C A98U G141U G143A	≤ -4.2
A28C C32G G48U C96G	≤ -4.2
A28U A49C C87G A106C C118G U144G	≤ -4.2
A28U A29C A39C U56A G67A G86A C87U G94U A122U U135C	≤ -4.2
A28U C57G U78A G83A G128U	≤ -4.2

Variant	polymerase ribozyme fitness (log ratio)
A28U A107G U111G	≤ -4.2
A28G G81A G83C G84A A106U G136C G152C	≤ -4.2
A28C C54A C57U	≤ -4.2
A28U A30G G50A U56A G92C U104G U135G	≤ -4.2
A28C G58A C85A A142G	≤ -4.2
A29C C43A G136C	≤ -4.2
A29C A49G C69G U77G C79U C116U U146A	≤ -4.2
A28G A60C G62A A66U G81C G83C G124U A142U A150C	≤ -4.2
A29C C38G G46C C79U G124A U130G U135G G140C	≤ -4.2
A28C C54U C57U U90G C95G A120U U145A U148G	≤ -4.2
A28G A49C C51A A64C A66C C87G U90G	≤ -4.2
A28G G50C C75U G88C C93G G100U C118U A137C G143U	≤ -4.2
A29C C54G C93G A98G A107C G124A	≤ -4.2
A28G G34A G68U C87G	≤ -4.2
A28U C43U C57U G94A U146C	≤ -4.2
A28C U31A U53A C54A C72U U78C A107G G126U	≤ -4.2
A29C C54A C57U C76G C79G G94A	≤ -4.2
A28U C105A A137C	≤ -4.2
A28U A49C G58C	≤ -4.2
A29C A47U C79G C95A C99U	≤ -4.2
A28U U45A U55A U56A A73U G86C U139G	≤ -4.2
A28U U53A G58A C95U C114U	≤ -4.2
A28U U77A C87U A106G U135G	≤ -4.2
